B1: TEV protease; numbered along this chain (parent)
chain: MGESLFKGPRDYNPISSSICHLTNESDGHTTSLYGIGFGPFIITNKHLFRRNNGTLVVQSLHGVFKVKDTTTLQQHLVDGRDMIIIRMPKDFPPFPQKLKFREPQREERICLVTTNFQTKSMSSMVSDTSCTFPSGDGIFWKHWIQTKDGQCGSPLVSTRDGFIVGIHSASNFTNTNNYFTSVPKNFMELLTNQEAQQWVSGWRLNADSVLWGGHKVFMVKPEEPFQPVKEATQL

Variants of B1 are the subject of this assay. As to the kind of experiment: raw area under fraction-flipped curve 0-4 h after induction (AUC4h, not background-subtracted), DNA-recorder readout of cleavage of the substrate (dimensionless); higher = more cleavage of the substrate by the protease variant. To be noted: temperature: 34 °C; time window: 0-4 h after rhamnose induction. How it is done: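 In vivo DNA recorder in E. coli TOP10(DE3) ΔrhaA at 34 °C. Each TEVp single-site mutant (parent TEVp 0) is paired with a single-site variant of the 7-mer TEVs (canonical ENLYFQ|S). The substrate sits between flexible linkers in a Bxb1-sfGFP-TEVs-SsrA fusion, so cleavage stabilises Bxb1 and speeds flipping of a recombination array, read by NGS. The value is the raw area under the fraction-flipped curve over 0-4 h after rhamnose induction (AUC4h), with ≥20 reads per time point. It is not background-subtracted; inactive controls average about 0.047.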

The other results are listed elsewhere or left out. The full chains were built here from the parent and the listed change. Values near 0.05 are background.
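Also: Bxb1 expression induced with 0.2% (w/v) L-rhamnose at OD600 near 0.5, cultures sampled hourly, flipped fraction per protease–substrate barcode pair counted by paired-end Illumina sequencing.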

As for MGESLFKGPRDYNPISSSICHLTNESDGHTTSLYGIGFGPFIITNKHLFRRNNGTLVVQSLHGVFKVKDTTTLQQHLVDGRDMCIIRMPKDFPPFPQKLKFREPQREERICLVTTNFQTKSMSSMVSDTSCTFPSGDGIFWKHWIQTKDGQCGSPLVSTRDGFIVGIHSASNFTNTNNYFTSVPKNFMELLTNQEAQQWVSGWRLNADSVLWGGHKVFMVKPEEPFQPVKEATQL [I84C], the “area with substrate ENLYFQA” value was 0.0859, the “area with substrate ENLYFQF” value is 0.0708, the “area with substrate ENLYFQH” value came to 0.0804 and the “area with substrate ENLYFQI” value was determined as 0.0767. Also, the “area with substrate ENLYFQK” value was found to be 0.0702, the “area with substrate ENLYFQL” value turned out to be 0.0535, the “area with substrate ENLYFQM” value was 0.106 and the “area with substrate ENLYFQN” value was 0.0857. In addition, the “area with substrate ENLYFQR” value is 0.0636, the “area with substrate ENLYFQS” value was determined as 0.104, the “area with substrate ENLYFQW” value was determined as 0.0741 and the “area with substrate ENLYFQY” value is 0.0669.
On to MGESLFKGPRDYNPISSSICHLTNESDGHTTSLYGIGFGPFIITNKHLFRRNNGTLVVQSLHGVFKMKDTTTLQQHLVDGRDMIIIRMPKDFPPFPQKLKFREPQREERICLVTTNFQTKSMSSMVSDTSCTFPSGDGIFWKHWIQTKDGQCGSPLVSTRDGFIVGIHSASNFTNTNNYFTSVPKNFMELLTNQEAQQWVSGWRLNADSVLWGGHKVFMVKPEEPFQPVKEATQL [V67M], for which the “area with substrate ENLYFQA” value worked out at 0.0915, the “area with substrate ENLYFQD” value is 0.0663, the “area with substrate ENLYFQE” value was found to be 0.0584 and the “area with substrate ENLYFQG” value came to 0.08. Moreover, the “area with substrate ENLYFQI” value was 0.0551, the “area with substrate ENLYFQL” value stood at 0.0496, the “area with substrate ENLYFQM” value amounted to 0.0759 and the “area with substrate ENLYFQN” value turned out to be 0.0707. Besides, the “area with substrate ENLYFQR” value stood at 0.0579, the “area with substrate ENLYFQS” value came to 0.0878, the “area with substrate ENLYFQT” value is 0.0661 and the “area with substrate ENLYFQW” value was determined as 0.0726.
Take MGESLFKGPRDYNRISSSICHLTNESDGHTTSLYGIGFGPFIITNKHLFRRNNGTLVVQSLHGVFKVKDTTTLQQHLVDGRDMIIIRMPKDFPPFPQKLKFREPQREERICLVTTNFQTKSMSSMVSDTSCTFPSGDGIFWKHWIQTKDGQCGSPLVSTRDGFIVGIHSASNFTNTNNYFTSVPKNFMELLTNQEAQQWVSGWRLNADSVLWGGHKVFMVKPEEPFQPVKEATQL [P14R]: the “area with substrate ENLYFQA” value came out at 0.129, the “area with substrate ENLYFQC” value was found to be 0.128, the “area with substrate ENLYFQG” value turned out to be 0.105 and the “area with substrate ENLYFQH” value turned out to be 0.0966. Also, the “area with substrate ENLYFQI” value was 0.0629, the “area with substrate ENLYFQK” value came to 0.0654, the “area with substrate ENLYFQL” value turned out to be 0.0647 and the “area with substrate ENLYFQM” value is 0.0886. Moreover, the “area with substrate ENLYFQN” value came out at 0.0837, the “area with substrate ENLYFQP” value is 0.0811, the “area with substrate ENLYFQS” value stood at 0.108 and the “area with substrate ENLYFQT” value amounted to 0.0587. Further, the “area with substrate ENLYFQV” value is 0.0612 and the “area with substrate ENLYFQY” value stood at 0.0822.
As for MGESLFKGPRDYNPISSSICHLTNESDGHTTSLYGIGFGPFIITNKHLFRRNNGTLVVQSLHGVFKVKDTTTLQQHLVDGRDMIIIRMPKDFPPFPQKLKFREPQREERICLVTTNFSTKSMSSMVSDTSCTFPSGDGIFWKHWIQTKDGQCGSPLVSTRDGFIVGIHSASNFTNTNNYFTSVPKNFMELLTNQEAQQWVSGWRLNADSVLWGGHKVFMVKPEEPFQPVKEATQL [Q118S], the “area with substrate ENLYFQA” value came out at 0.0947, the “area with substrate ENLYFQD” value came out at 0.0833, the “area with substrate ENLYFQG” value is 0.0716 and the “area with substrate ENLYFQH” value came to 0.0871. Also, the “area with substrate ENLYFQI” value came to 0.051, the “area with substrate ENLYFQL” value came out at 0.0724, the “area with substrate ENLYFQM” value came out at 0.0864 and the “area with substrate ENLYFQN” value came out at 0.0914. Also, the “area with substrate ENLYFQP” value was found to be 0.0531, the “area with substrate ENLYFQQ” value came out at 0.0765, the “area with substrate ENLYFQR” value is 0.0693 and the “area with substrate ENLYFQS” value worked out at 0.0926. Also, the “area with substrate ENLYFQT” value is 0.059 and the “area with substrate ENLYFQV” value turned out to be 0.0677.
Consider MGESLFKGPRDYNPISSSICHLTNESDGHTTSLYGIGFGPFIITNKHLFRRNNGTLVVQSLHGVFKVKDTTTLQQHLVDGRDMIIIRMPKDFPPFPQKLKFREPQREERICLVTTNFQTKSMSSMVSDTSCTFPSGDGIFWKHWIQTKDGQCGSPLVSTRDGFIVGIHSASNFTNTNNYFTSVPKNFMELLTNQEAQQWVSGWRLNYDSVLWGGHKVFMVKPEEPFQPVKEATQL [A207Y], for which the “area with substrate ENLYFQA” value was found to be 0.0801, the “area with substrate ENLYFQL” value came out at 0.076, the “area with substrate ENLYFQM” value was found to be 0.106 and the “area with substrate ENLYFQN” value came out at 0.0816. The “area with substrate ENLYFQR” value was determined as 0.0504, the “area with substrate ENLYFQS” value was 0.0897 and the “area with substrate ENLYFQV” value was 0.0657.
As to MGESLFKGPRDYNPISSSICHLTNESDGHTTSLYGIGFGPFIITNKHLFRRNNGTLVVQSLHGVFKVKDTTTLQQHLVDGRDMIIIRMPKDFPPFPQKLKFREPQREERICLVTTNFQTKSMSSMVSDTSCTFPSGDGIFWKHWIQTKDGQCGSPLVSTRDGFIVGIHSASNFTNTNNYFTSVPKNFMELLTNPEAQQWVSGWRLNADSVLWGGHKVFMVKPEEPFQPVKEATQL [Q194P], the “area with substrate ENLYFQA” value was determined as 0.122, the “area with substrate ENLYFQC” value turned out to be 0.132, the “area with substrate ENLYFQF” value is 0.0693 and the “area with substrate ENLYFQH” value amounted to 0.102. Moreover, the “area with substrate ENLYFQK” value worked out at 0.0571, the “area with substrate ENLYFQL” value worked out at 0.0554, the “area with substrate ENLYFQN” value came out at 0.0904 and the “area with substrate ENLYFQP” value was 0.0745. Besides, the “area with substrate ENLYFQR” value is 0.0478, the “area with substrate ENLYFQS” value was 0.115 and the “area with substrate ENLYFQY” value turned out to be 0.126.
For MGESLFKGPRDYNPISSSICHLTNESDGHTTSLYGIGFGPFIITNKHLFRRNNGTLVVQSLHGVFKVKDTTTLQQHLVDGRDMIIIRMPKDFPPFPQKLKFREPQREERICLVTTNFQTKSMSSMVSDTSCTFPSGDGIFWKHWIQTKDGQCGSPLVSTRDGLIVGIHSASNFTNTNNYFTSVPKNFMELLTNQEAQQWVSGWRLNADSVLWGGHKVFMVKPEEPFQPVKEATQL [F163L], the “area with substrate ENLYFQA” value came to 0.12, the “area with substrate ENLYFQC” value amounted to 0.0937, the “area with substrate ENLYFQD” value was found to be 0.07 and the “area with substrate ENLYFQI” value was determined as 0.0586. Moreover, the “area with substrate ENLYFQK” value was 0.0438, the “area with substrate ENLYFQL” value amounted to 0.0696, the “area with substrate ENLYFQN” value was determined as 0.0883 and the “area with substrate ENLYFQR” value is 0.0567. The “area with substrate ENLYFQS” value worked out at 0.106, the “area with substrate ENLYFQT” value worked out at 0.0678, the “area with substrate ENLYFQV” value was 0.0845 and the “area with substrate ENLYFQW” value was 0.0769.
In the case of MGESLFKGPRDYNPISSSICHLTNESDGHTTSLYGIGFGPFIITNKHLFRRNNGTLVKQSLHGVFKVKDTTTLQQHLVDGRDMIIIRMPKDFPPFPQKLKFREPQREERICLVTTNFQTKSMSSMVSDTSCTFPSGDGIFWKHWIQTKDGQCGSPLVSTRDGFIVGIHSASNFTNTNNYFTSVPKNFMELLTNQEAQQWVSGWRLNADSVLWGGHKVFMVKPEEPFQPVKEATQL [V58K], the “area with substrate ENLYFQA” value was determined as 0.0434, the “area with substrate ENLYFQG” value worked out at 0.0259, the “area with substrate ENLYFQN” value stood at 0.0438 and the “area with substrate ENLYFQS” value came out at 0.0509. For the same variant, the “area with substrate ENLYFQV” value came out at 0.0374 and the “area with substrate ENLYFQY” value stood at 0.0367.
For the variant MGESLFKGPRDYNPISSSICHLTNESDGHTTSLYGIGFGPFIICNKHLFRRNNGTLVVQSLHGVFKVKDTTTLQQHLVDGRDMIIIRMPKDFPPFPQKLKFREPQREERICLVTTNFQTKSMSSMVSDTSCTFPSGDGIFWKHWIQTKDGQCGSPLVSTRDGFIVGIHSASNFTNTNNYFTSVPKNFMELLTNQEAQQWVSGWRLNADSVLWGGHKVFMVKPEEPFQPVKEATQL [T44C], the “area with substrate ENLYFQA” value turned out to be 0.0947, the “area with substrate ENLYFQC” value stood at 0.0916, the “area with substrate ENLYFQD” value worked out at 0.0729 and the “area with substrate ENLYFQF” value was 0.0717. Further, the “area with substrate ENLYFQH” value was 0.0749, the “area with substrate ENLYFQI” value came to 0.0523, the “area with substrate ENLYFQK” value was determined as 0.0571 and the “area with substrate ENLYFQL” value was determined as 0.0579. For the same variant, the “area with substrate ENLYFQM” value amounted to 0.04, the “area with substrate ENLYFQN” value turned out to be 0.0739, the “area with substrate ENLYFQP” value is 0 and the “area with substrate ENLYFQR” value stood at 0.0588. Moreover, the “area with substrate ENLYFQS” value was 0.0919, the “area with substrate ENLYFQT” value stood at 0.0651, the “area with substrate ENLYFQV” value worked out at 0.0358 and the “area with substrate ENLYFQW” value was 0.0629.
On to MGESLFKGPRDYNPISSSICHLTNESDGHTTSLYGIGFGPFIITNKSLFRRNNGTLVVQSLHGVFKVKDTTTLQQHLVDGRDMIIIRMPKDFPPFPQKLKFREPQREERICLVTTNFQTKSMSSMVSDTSCTFPSGDGIFWKHWIQTKDGQCGSPLVSTRDGFIVGIHSASNFTNTNNYFTSVPKNFMELLTNQEAQQWVSGWRLNADSVLWGGHKVFMVKPEEPFQPVKEATQL [H47S], for which the “area with substrate ENLYFQA” value was found to be 0.0616, the “area with substrate ENLYFQC” value was found to be 0.077, the “area with substrate ENLYFQD” value turned out to be 0.0576 and the “area with substrate ENLYFQE” value was 0.0614. Moreover, the “area with substrate ENLYFQG” value stood at 0.0642, the “area with substrate ENLYFQI” value amounted to 0.0611, the “area with substrate ENLYFQK” value is 0.0628 and the “area with substrate ENLYFQL” value was determined as 0.0576. Also, the “area with substrate ENLYFQM” value turned out to be 0.0602, the “area with substrate ENLYFQN” value turned out to be 0.0593, the “area with substrate ENLYFQQ” value amounted to 0.0538 and the “area with substrate ENLYFQR” value came to 0.0554. Also, the “area with substrate ENLYFQS” value is 0.0602, the “area with substrate ENLYFQT” value was 0.0518, the “area with substrate ENLYFQV” value came to 0.0576 and the “area with substrate ENLYFQW” value amounted to 0.055. For the same variant, the “area with substrate ENLYFQY” value stood at 0.0866.

The values above are taken from the supplement of paper PMC12217912.
